Measurements as given in paper PMC7819943, “Rice protein-binding microarrays: a tool to detect cis-acting elements near promoter regions in rice”.
Some of the results follow.

These sequences were tested against T1, OsWOX13 (Oryza sativa, UniProt Q5QMM3 1-267) (assay: protein-binding microarray (RPBM); PBS, 2% BSA, 51.3 ng/ul salmon testes DNA, 50 uM zinc acetate, 200 nM TF, 25 C, 1 h; high values mean tight binding). Conditions: protein: recombinant; tags: N-terminal polyhistidine and DsRed monomer fusion (pET32a); label: CyDye5-dUTP incorporated in the synthesized complementary strand; 3' TTTTT single-stranded linker to array surface; dsDNA, one strand shown.
T1 sequence: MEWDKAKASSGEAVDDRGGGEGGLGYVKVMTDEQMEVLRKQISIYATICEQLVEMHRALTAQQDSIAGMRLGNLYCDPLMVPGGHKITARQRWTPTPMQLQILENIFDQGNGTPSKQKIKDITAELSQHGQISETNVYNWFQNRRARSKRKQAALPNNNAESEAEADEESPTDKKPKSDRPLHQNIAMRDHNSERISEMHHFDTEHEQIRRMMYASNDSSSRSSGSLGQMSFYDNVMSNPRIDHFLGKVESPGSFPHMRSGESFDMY
Method in brief: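 Binding signal here means per-feature fluorescence intensity in arbitrary units. The values were read on an Axon 4000B scanner after a custom Agilent array, double-stranded by primer extension with Cy5-dUTP, was incubated with 200 nM protein at 25 °C for 1 h in PBS with 2% BSA, salmon testes DNA and 50 µM zinc acetate, then washed. The proteins were transcription factors with an N-terminal polyhistidine tag and DsRed, expressed in E. coli BL21-CodonPlus and purified on Ni–NTA.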

Sequence	binding signal
AATCTGTAATTTTGTGATAACTTCAATATTAAATATATAGCGGAGTCACCTAGTGCAG	5930 fluorescence intensity (a.u.)
ATGTGATTAAAGGCCTCATCGTTTCGCTTATTCGTGAAATCGGAGTCACCTAGTGCAG	14200 fluorescence intensity (a.u.)
ATTTGATTTAAAACCTCAGTTTTCGATTGAGAGAAAATATCGGAGTCACCTAGTGCAG	4350 fluorescence intensity (a.u.)
CTTCACTTCTATCACACAGTTGACAGAATTCAGAGCCTTCCGGAGTCACCTAGTGCAG	8270 fluorescence intensity (a.u.)
CTTAAACAGATGGAGCAGAAGAAGAAAACGGATGCTAGAACGGAGTCACCTAGTGCAG	5680 fluorescence intensity (a.u.)
AAATCTGATTAACCTGCCTTTCACACCACACGTGAATTAGCGGAGTCACCTAGTGCAG	9750 fluorescence intensity (a.u.)
TCGGTCTTTCAACTCACATCAATTAGCTTAAGTTTCCATTCGGAGTCACCTAGTGCAG	3210 fluorescence intensity (a.u.)
CCAAACAAATTTAATCAAAAGCCAGCATGATGCAGTTAATCGGAGTCACCTAGTGCAG	6400 fluorescence intensity (a.u.)
GGAGTAGTGATTAGTGGGTGGTGATGGGCACCACTAGTCACGGAGTCACCTAGTGCAG	11200 fluorescence intensity (a.u.)
CAAATCATGACGCAATTAAGTTTAAAAGATTTGTCTCATACGGAGTCACCTAGTGCAG	16700 fluorescence intensity (a.u.)
TTTATGATTAGTATTATTATTATTATTATTATATGATAAACGGAGTCACCTAGTGCAG	23400 fluorescence intensity (a.u.)
GAGGCAGTAATTAACATCCATTGGAAGAGCATATAATGGGCGGAGTCACCTAGTGCAG	6900 fluorescence intensity (a.u.)
ACGTGATGAGCAGCCTGGTGGACTTCTATGGAAAATGCGGCGGAGTCACCTAGTGCAG	7520 fluorescence intensity (a.u.)
GTCTTGATGGATCGGTCAGGATCGTCTCGCTTAGATCCAACGGAGTCACCTAGTGCAG	5260 fluorescence intensity (a.u.)
ATAATTTCTCTATGGTTTCTAAGAGATAGATAGAATATATCGGAGTCACCTAGTGCAG	8940 fluorescence intensity (a.u.)
GAATTAGTTGATTTGGACATAGGAATATACTCCTATTTCTCGGAGTCACCTAGTGCAG	4710 fluorescence intensity (a.u.)
TTAATTAATTATAGAAACAGTCTCTCTGGAAATGGTTCAACGGAGTCACCTAGTGCAG	41700 fluorescence intensity (a.u.)
TCTTTAAATTATGATTATTGTGCGAACGATTTTGCTATATCGGAGTCACCTAGTGCAG	20500 fluorescence intensity (a.u.)
TCCCAATTACCTGCCCCTACCCAAGTATTGAAAAGGAGGGCGGAGTCACCTAGTGCAG	4310 fluorescence intensity (a.u.)
TACCTAATTTCATATATCTAATTGCTTTGTGATGCTCAATCGGAGTCACCTAGTGCAG	15700 fluorescence intensity (a.u.)
TTATCTAAATCTACCTAATTAGTCGTAAATATGAGCACACCGGAGTCACCTAGTGCAG	8440 fluorescence intensity (a.u.)

Sequence	binding signal
TTTGATGAGTGAGAGCCCTCAGGGCCGATTTATATATGGGCGGAGTCACCTAGTGCAG	8560 fluorescence intensity (a.u.)
CTATTTCTCAAATGATTGATGTGGATAATCCATGGCTTCACGGAGTCACCTAGTGCAG	18100 fluorescence intensity (a.u.)
ATATATATATATATATATATATATATATATACAGTTCACACGGAGTCACCTAGTGCAG	25700 fluorescence intensity (a.u.)
GTTTAGACTTATAATAAACTAATTAAAACGATAAGTAAGTCGGAGTCACCTAGTGCAG	4810 fluorescence intensity (a.u.)
AAATTAACAGCGTTAAATATTTAGGAGCGGAGGGAGTATTCGGAGTCACCTAGTGCAG	4020 fluorescence intensity (a.u.)
CTCATTGACATTTTCAGTTGGTAATCAGTACACTTGTTCCCGGAGTCACCTAGTGCAG	6440 fluorescence intensity (a.u.)
CCTTGATGACACGAATAGCTATGGCATATCCTTGGTATTCCGGAGTCACCTAGTGCAG	4660 fluorescence intensity (a.u.)
TTCAGTATGTGTGATTGGCTGAGCTTGGATTTAGTACTAGCGGAGTCACCTAGTGCAG	19800 fluorescence intensity (a.u.)
TAAGATTGATTGATTCGAAACGATCCTCCAAAATACTGTACGGAGTCACCTAGTGCAG	19500 fluorescence intensity (a.u.)
GATTATGATTTGGAGAAAATTGCATCCATAAAACATTAATCGGAGTCACCTAGTGCAG	8000 fluorescence intensity (a.u.)
CCGCGTACGCGATTGACGACTATACATTTTACGGGCTCACCGGAGTCACCTAGTGCAG	5470 fluorescence intensity (a.u.)
ACTAGTTAAACTAATTTAAATTTTATGTCTAATAAAGTAGCGGAGTCACCTAGTGCAG	20500 fluorescence intensity (a.u.)
ATATAAATTGACTATTAAATATATTGACTATATGTAAATTCGGAGTCACCTAGTGCAG	25600 fluorescence intensity (a.u.)
TCCGCGTGATTTCCCTCTCCGTGGCGGTGTTTTGGTCGGGCGGAGTCACCTAGTGCAG	7120 fluorescence intensity (a.u.)
TTAACAATTGAAAGATCATCTCATTGGTTAATTTATTTGGCGGAGTCACCTAGTGCAG	6220 fluorescence intensity (a.u.)
ATAATAATTAAGTAAACATTATTAGAAAATAGCACAACCTCGGAGTCACCTAGTGCAG	8720 fluorescence intensity (a.u.)
ATTAACGATACTTTTACTGATTACTGAAGCGGTTAACGACCGGAGTCACCTAGTGCAG	3930 fluorescence intensity (a.u.)
TGGTAATACGTAATCTAGATTTGAGATTATGTAGAACATTCGGAGTCACCTAGTGCAG	5170 fluorescence intensity (a.u.)
ATAAATTATCCCACCAAAATTCGACTGAATTCGATAAGTTCGGAGTCACCTAGTGCAG	4770 fluorescence intensity (a.u.)
TCACCTAACTCTAGTATAATTATCAATTTATCAGGCATACCGGAGTCACCTAGTGCAG	11200 fluorescence intensity (a.u.)
GAATTAATTGAGTTTCAGTTATAGATATATAGCTGGCTGACGGAGTCACCTAGTGCAG	35300 fluorescence intensity (a.u.)

Sequence	binding signal
ATATATCAAATTTTGCAAAATTATAATGGCATGGTTGTAACGGAGTCACCTAGTGCAG	5580 fluorescence intensity (a.u.)
TTGAAATTTGAGAAAATTTGCTCAAATTCACCAAGGTCTACGGAGTCACCTAGTGCAG	7750 fluorescence intensity (a.u.)
TGCAATTGATTTCACAAACCATGGGAGATGGTGACGTGCACGGAGTCACCTAGTGCAG	18900 fluorescence intensity (a.u.)
TTGTGCTTTCCATCCAATTGATTATATGTTTATGGTGTCACGGAGTCACCTAGTGCAG	7290 fluorescence intensity (a.u.)
AGTCGTCAATCACCACAACGCCATCTTCTTCTCGTTAGGTCGGAGTCACCTAGTGCAG	23500 fluorescence intensity (a.u.)
AAAAGGGTAATTTTACAATTTTAACAAGGTATCATAAGGTCGGAGTCACCTAGTGCAG	3730 fluorescence intensity (a.u.)
GCGCTGATGTACATCACTTCCAAATTTGGTGTCATTCTTGCGGAGTCACCTAGTGCAG	4920 fluorescence intensity (a.u.)
TTGATTAAATTTAAACAAGTTTGTTAGTAAAAGCGAATTACGGAGTCACCTAGTGCAG	28200 fluorescence intensity (a.u.)
CATCACACATAATTACATACTTCCTCCGTTTTATAATGTACGGAGTCACCTAGTGCAG	4930 fluorescence intensity (a.u.)
GCAATAAACAGAATGTTTCCTTTCAAACAGAGTATTAAAACGGAGTCACCTAGTGCAG	4230 fluorescence intensity (a.u.)
TACTAATTTGATACTAGTGGTGGTGTCCGAGTCTGCTTTCCGGAGTCACCTAGTGCAG	29700 fluorescence intensity (a.u.)
TTAATTGTATTATGATGAAATCCGTGTCCATGCGGTTATGCGGAGTCACCTAGTGCAG	14700 fluorescence intensity (a.u.)
ACTTTATTGCCAAATTTGGTAAATACATAAGAAATCCTGGCGGAGTCACCTAGTGCAG	6740 fluorescence intensity (a.u.)
ACCATGATATTTGGTATGATTGGAACAAAGAAAGGACCAGCGGAGTCACCTAGTGCAG	22400 fluorescence intensity (a.u.)
ACTTTAATTAGTCGTGATCAATCAATCAATCTGAATCTGTCGGAGTCACCTAGTGCAG	65100 fluorescence intensity (a.u.)
CTCTTATTAATTAATTGCCGCCTGTTTTAGCTAGCCTTTGCGGAGTCACCTAGTGCAG	48800 fluorescence intensity (a.u.)
ATTTGTGGCTCATAATTTGTTCTTCATGATTACAGCTTGACGGAGTCACCTAGTGCAG	4040 fluorescence intensity (a.u.)
GATAATCAAATTATTAGTAAATATAGTTCGTCCTTAATTACGGAGTCACCTAGTGCAG	4540 fluorescence intensity (a.u.)
TTATTCTTGTTAATTAGTTTTAGGTGGCAAGATCTATGTCCGGAGTCACCTAGTGCAG	5470 fluorescence intensity (a.u.)
GTCACACCAATCATCGGCGGCTCTGCCATTGTACTCATGTCGGAGTCACCTAGTGCAG	6380 fluorescence intensity (a.u.)
ACCTTGGTGAAACACAAATTAATTACTCGCCCACGTAGATCGGAGTCACCTAGTGCAG	3810 fluorescence intensity (a.u.)

Sequence	binding signal
CCAGATTGAATTCCCCGACGAGAAATCCGCCACAGCCGCCCGGAGTCACCTAGTGCAG	38800 fluorescence intensity (a.u.)
GGACTAATTACGGCGGGCATTATCCACGGAAGAGGCCGCACGGAGTCACCTAGTGCAG	15100 fluorescence intensity (a.u.)
CTTAACCAATAATGTGCTAATGATTTACCTTCTTTACTATCGGAGTCACCTAGTGCAG	9150 fluorescence intensity (a.u.)
ATTAGCTAATATTTAATTAATCACACGTTAAACGCTGCTCCGGAGTCACCTAGTGCAG	8210 fluorescence intensity (a.u.)
CGACTGATTGGTTGGGGTCATGGTTGGAACAAAATTTCCTCGGAGTCACCTAGTGCAG	52800 fluorescence intensity (a.u.)
ACTGATAGACCGAGAAGAGGACGCTTGGCCGACCTTGAATCGGAGTCACCTAGTGCAG	9960 fluorescence intensity (a.u.)
GTTAACATTGTTCTTAAATTTGCTACTTGCACGAGCATTACGGAGTCACCTAGTGCAG	4140 fluorescence intensity (a.u.)
CCTAAATTTACTTAAGGAGTAGGGACTGGAGTAGAGTTGTCGGAGTCACCTAGTGCAG	10700 fluorescence intensity (a.u.)
GTGACTGATTGACAGTATCAACCATCTAGTGTTAAGATAGCGGAGTCACCTAGTGCAG	52800 fluorescence intensity (a.u.)
ATGCAAATTGGATGGTTGAGATTACGCGTGTCTGTCAGATCGGAGTCACCTAGTGCAG	12300 fluorescence intensity (a.u.)
TGTGTAATTGGGCCGGGCCCAAGAGGCCAAGTTTGTGATTCGGAGTCACCTAGTGCAG	7900 fluorescence intensity (a.u.)
CTTATGATTTTATTTAACCTGGTTTTGAAAGACAGGGGTTCGGAGTCACCTAGTGCAG	18100 fluorescence intensity (a.u.)
AATTAACGGAGGAAACTCCAATCAGATACGCAGACGGACACGGAGTCACCTAGTGCAG	8430 fluorescence intensity (a.u.)
TCGATTGGGGATTGGGGATTGGGGATCAGGAGGGATGGGGCGGAGTCACCTAGTGCAG	23300 fluorescence intensity (a.u.)
CAACTACATTTCCACTTGATTGGTATCGGATCGTCGATCTCGGAGTCACCTAGTGCAG	31300 fluorescence intensity (a.u.)
TAAGGTGATTTTAAATGTTTACTTCACACGTAGTACTGTTCGGAGTCACCTAGTGCAG	4540 fluorescence intensity (a.u.)
AAATTTGCAATTAGCCCTTAATTATAAGTTGTTTCTTCTTCGGAGTCACCTAGTGCAG	17900 fluorescence intensity (a.u.)
AACAGATGGGACGATGATTTGGCTAGATATTCGTCAAGATCGGAGTCACCTAGTGCAG	7340 fluorescence intensity (a.u.)
CAAACTGAATTGCACAAATTAAATCAAAACAGGAAACATTCGGAGTCACCTAGTGCAG	7520 fluorescence intensity (a.u.)
CCAATTTGACGTGAAATGTTTAGATGATCTCTTGCCAGTACGGAGTCACCTAGTGCAG	4560 fluorescence intensity (a.u.)
GGAGTAATTAATACCACCCATACGTATACATATATTCTCTCGGAGTCACCTAGTGCAG	8840 fluorescence intensity (a.u.)
